In all, about 71,000 compounds went through this assay and about 1,800 (2.5%) were called active. Inconclusive means that the source gave no clear call. Such entries were picked first, then a sample of the others. Calls come from the whole dose curve; as a rule, active = well fitted activation curve with a large enough effect in the signal ratio, with a control signal flat (not every such curve was filed as active); inconclusive = small, poorly fitted or top-dose-only effect, or effect the other way, or a change in a side signal; inactive = flat fitted curve, though single readings scatter; the % refers to the signal ratio. Where the call is inconclusive, the potency comes from a doubtful curve fit.
experiment: Cell signaling CRE-BLA (Fsk stim); settings: CHO CRE-bla reporter (cAMP response element driving beta-lactamase), forskolin EC10, beta-lactamase ratio; activity change, negative = inhibition: at 38.2 µM (top of the series) unless noted; for activity change, negative = inhibition: % of control where 0% means no effect
Summary of the method: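 Cells were plated overnight at 37 °C, exposed to compound titrations plus EC10 NKH 477 for 3 h, then given CCF4 dye for 2 h at room temperature. Blue/green (460/530 nm) ratio was converted to %Activity and AC50 values calculated.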
Potency is the fitted concentration of half-maximal effect; tags give direction and shape of the fitted curve.

| Structure (SMILES) | activity change, negative = inhibition | Potency |
| --- | --- | --- |
| CCC1Oc2ccc(C)cc2N(CC(=O)N(Cc2ccc3c(c2)OCO3)CC2CCCO2)C1=O (centres undefined) | inactive |  |
| COc1ccc(C2CC(=O)C(C=NCCN3CCNCC3)=C(O)C2)cc1OC (centres undefined) | inconclusive: -0.858% [at 7.6 µM] |  |
| COc1ccc2c(c1)CCc1c(C(=O)N3CC4(C)CC3CC(C)(C)C4)noc1-2 (centres undefined) |  | inconclusive: 7.94 µM [rising, partial curve] |
| O=C(CN1C(=O)C2(OCCO2)c2ccccc21)c1ccc(Br)cc1 | inconclusive: -16.4% |  |
| CCCCn1nc(C(=O)NC2=NCCS2)c2ccccc2c1=O |  | inconclusive: 3.16 µM [rising, single point] |
| O=C(NCc1ccccn1)C(C(=O)c1ccc(F)cc1)n1ccccc1=O (centres undefined) | inactive |  |
| Cc1nc2cc(NC(=O)Nc3ccc(N4CCOCC4)cc3)ccc2n1C | inconclusive: 13% |  |
| Cc1nnc(SCCn2c(N3CCN(c4ccccc4)CC3)nc3c2c(=O)n(C)c(=O)n3C)s1 |  | inconclusive: 2.51 µM [rising, full curve, poor fit] |
| CCOC(=O)C1=C(C)NC(SCC(N)=O)=C(C#N)C1c1ccncc1 (centres undefined) | inactive |  |
| Cc1ccc2[nH]c(=O)c3cc(C(=O)N4CCN(C(=O)c5ccco5)CC4)sc3c2c1 |  | inconclusive: 12.6 µM [rising, single point] |
| CCOc1cc(/C=C(/C#N)c2ccc(F)cc2)ccc1OCc1ccc(C(=O)O)o1 | inconclusive: -21.8% |  |
| Cc1nc(N2CCN(c3ccccc3)CC2)nc2c1C(=O)CC(c1ccccc1)C2 (centres undefined) |  | inconclusive: 12.6 µM [rising, single point] |
| Cc1ccccc1C(=O)N1CCN(c2ccc(NC(=O)c3ccco3)cc2Cl)CC1 |  | inconclusive: 10 µM [falling, partial curve] |
| CCOc1ccccc1CN(Cc1ccco1)S(=O)(=O)c1ccc(-n2cnnn2)c(OC)c1 |  | inconclusive: 15.8 µM [rising, partial curve] |
| CN1CCCN(C)C1c1cc([N+](=O)[O-])ccc1O | inactive: 13.9% [at 7.6 µM] |  |
| C[C@H](C(=O)O)c1cccc(Oc2ccccc2)c1 | inactive |  |
| COCCn1c(=O)cnc2cnc(Nc3cccc(OC)c3)nc21 |  | inconclusive: 5.01 µM [falling, partial curve] |
| Cc1ccc(-n2c(C)cc(C(=O)OCC(=O)N(CC(C)C)C3CCS(=O)(=O)C3)c2C)cc1 (centres undefined) |  | inconclusive: 25.1 µM [rising, single point] |
| CCCS(=O)(=O)N1CCC(C(=O)NCc2ccccc2Cl)CC1 | inactive |  |
| CC(=O)N1CCc2cc(S(=O)(=O)NCCC(=O)N3CCc4ccccc4C3)ccc21 |  | inconclusive: 31.6 µM [rising, single point] |

| Structure (SMILES) | activity change, negative = inhibition | Potency |
| --- | --- | --- |
| O=c1c(C/C=C/c2ccccc2)c(O)nc2n1CCCS2 | inactive |  |
| Cc1ccc(CC(=O)Nc2cccc(C)n2)cc1 | inconclusive: -1.56% |  |
| COCCn1c(=O)c(-c2cccs2)nc2cnc(N(C)C)nc21 |  | inconclusive: 2.51 µM [rising, partial curve] |
| CCOC(=O)C1=C(N)Oc2c(oc(CO)cc2=O)C1c1c(F)cccc1Cl (centres undefined) | inactive |  |
| CCN(c1ccccc1)S(=O)(=O)c1ccc2[nH]cc(C(=O)NCCOC)c(=O)c2c1 | inconclusive: -2.58% |  |
| Cc1ccsc1C(C(=O)NC1CCCCC1)N(C(=O)c1csnn1)C1CC1 (centres undefined) | inactive |  |
| COc1ccc(C(=O)COC(=O)CSCc2c(C)noc2C)cc1OC |  | inconclusive: 12.6 µM [rising, single point] |
| COC(=O)N1CCC2(CC1)CN(c1ccccn1)C2 | inactive |  |
| Cc1ccc(CCNC(=O)C2CCCN2S(=O)(=O)c2ccc3c(c2)CCC(=O)N3)cc1 (centres undefined) | inactive |  |
| Cc1ccc(NC(=O)Cn2nnc(C(=O)NCc3cccs3)c2N)cc1 |  | inconclusive: 25.1 µM [rising, single point] |
| Cc1ccc(O)c(-c2cc3ccccc3[nH]2)c1 | inconclusive: -2.05% [at 7.6 µM] |  |
| Cc1c(Cl)cccc1N(CC(=O)NC1CCCCC1)S(C)(=O)=O |  | inconclusive: 5.01 µM [falling, single point] |
| COc1ccc(-c2nnc(NC(=O)c3ccc(S(=O)(=O)N4CCCc5ccccc54)cc3)o2)cc1 | inconclusive: -21.9% |  |
| Cc1ccc(-n2nc3c(c2NC(=O)c2ccc4c(c2)OCO4)CSC3)cc1 | inactive |  |
| CCc1nnc(NC(=O)CSc2nc3cccnc3n2C2CCCCC2)s1 | inconclusive: 18.4% |  |
| Cc1[nH]c2ccc(-c3nnc(SCC(=O)c4ccccc4F)o3)cc2c1C |  | inconclusive: 3.16 µM [rising, single point] |
| CN(C)Cc1cc(CCNC(=O)c2ccc(Cl)cc2)ccc1O | inactive |  |
| CC(=O)Nc1cccc(C(=O)Oc2cccc(C)c2)c1O | inactive |  |
| Cc1cc(C)n(-c2nc(NCC3CCCO3)c3c4c(sc3n2)COC(C)(C)C4)n1 (centres undefined) |  | active: 12.6 µM |

From PubChem BioAssay AID662 (National Center for Advancing Translational Sciences (NCATS), 2007)
